# Source: the supplement of paper PMC8728848
# This is one part of the list.
# B1: HPAIIITrx (Helix pomatia), Q1KM18 (protein)
# chain: MLFVTIISLGLLAIVHGQCALKTIAFSAAIDREQTFDANQVVIYDIVITNHGNAYDNSTGLFTAPVDGMYSFQLNLLTIKEKEGWLELVHNGQLKVSVYAKQDSTYDSSSNSVIIKMKEGDRVNVRAHKKSGLFGRDDELYNTFSGHFLSGL
# Columns and labels:
# Assay in all cases: glycan array binding signal (z-score within array); higher = stronger binding
# Conditions in all cases: glycan notation: IUPAC condensed, linker removed
# [1] = target: Fuc(a1-2)Gal(b1-4)GlcNAc(b1-2)[Fuc(a1-2)Gal(b1-4)GlcNAc(b1-4)]Man(a1-3)[Fuc(a1-2)Gal(b1-4)GlcNAc(b1-2)Man(a1-6)]Man(b1-4)GlcNAc(b1-4)GlcNAc
# Summary of the method: (§1)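 Arrays were curated from the Consortium for Functional Glycomics database, 3228 in total, and kept only where the protein sequence was available. Binding is expressed as a within-array Z-score. This score was averaged across arrays of the same protein sequence at different concentrations or buffers and across linkers, and negative values can be read as non-binding.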
# [2] = target: Fuc(a1-2)Gal(b1-4)GlcNAc(b1-3)Gal(b1-4)GlcNAc
# Summary of the method: as §1
# [3] = target: Fuc(a1-2)Gal(b1-4)GlcNAc(b1-3)Gal(b1-4)GlcNAc(b1-2)Man(a1-3)[Fuc(a1-2)Gal(b1-4)GlcNAc(b1-3)Gal(b1-4)GlcNAc(b1-2)Man(a1-6)]Man(b1-4)GlcNAc(b1-4)GlcNAc
# Summary of the method: as §1
# [4] = target: Fuc(a1-2)Gal(b1-4)GlcNAc(b1-3)Gal(b1-4)GlcNAc(b1-3)Gal(b1-4)GlcNAc
# Summary of the method: as §1
# [5] = target: Fuc(a1-2)Gal(b1-4)GlcNAc(b1-3)GalNAc
# Summary of the method: as §1
# [6] = target: Fuc(a1-2)Gal(b1-4)GlcNAc(b1-3)[Fuc(a1-2)Gal(b1-4)GlcNAc(b1-6)]GalNAc
# Summary of the method: as §1
# [7] = target: Fuc(a1-2)Gal(b1-4)GlcNAc(b1-3)[Fuc(a1-3)[Gal(b1-4)]GlcNAc(b1-6)]Gal(b1-4)Glc
# Summary of the method: as §1
# [8] = target: Fuc(a1-2)Gal(b1-4)GlcNAc(b1-6)GalNAc
# Summary of the method: as §1
# [9] = target: Fuc(a1-2)Gal(b1-4)GlcNAc6S
# Summary of the method: as §1
# [10] = target: Fuc(a1-2)Gal(b1-4)[Fuc(a1-3)]GlcNAc
# Summary of the method: as §1
# [11] = target: Fuc(a1-2)Gal(b1-4)[Fuc(a1-3)]GlcNAc(b1-2)Man(a1-3)[Fuc(a1-2)Gal(b1-4)[Fuc(a1-3)]GlcNAc(b1-2)Man(a1-6)]Man(b1-4)GlcNAc(b1-4)GlcNAc
# Summary of the method: as §1
# [12] = target: Fuc(a1-2)Gal(b1-4)[Fuc(a1-3)]GlcNAc(b1-2)Man(a1-3)[Fuc(a1-2)Gal(b1-4)[Fuc(a1-3)]GlcNAc(b1-2)Man(a1-6)]Man(b1-4)GlcNAc(b1-4)[Fuc(a1-6)]GlcNAc
# Summary of the method: as §1
# [13] = target: Fuc(a1-2)Gal(b1-4)[Fuc(a1-3)]GlcNAc(b1-2)[Fuc(a1-2)Gal(b1-4)[Fuc(a1-3)]GlcNAc(b1-4)]Man(a1-3)[Fuc(a1-2)Gal(b1-4)[Fuc(a1-3)]GlcNAc(b1-2)Man(a1-6)]Man(b1-4)GlcNAc(b1-4)GlcNAc
# Summary of the method: as §1
# [14] = target: Fuc(a1-2)Gal(b1-4)[Fuc(a1-3)]GlcNAc(b1-3)Gal(b1-4)[Fuc(a1-3)]GlcNAc
# Summary of the method: as §1
# [15] = target: Fuc(a1-2)Gal(b1-4)[Fuc(a1-3)]GlcNAc(b1-3)Gal(b1-4)[Fuc(a1-3)]GlcNAc(b1-3)Gal(b1-4)[Fuc(a1-3)]GlcNAc
# Summary of the method: as §1
# [16] = target: Fuc(a1-2)Gal(b1-4)[Fuc(a1-3)]GlcNAc(b1-3)GalNAc
# Summary of the method: as §1
# [17] = target: Fuc(a1-2)Gal(b1-4)[Fuc(a1-3)]GlcNAc(b1-3)[Neu5Ac(a2-6)Gal(b1-4)GlcNAc(b1-6)]Gal(b1-4)Glc
# Summary of the method: as §1
# [18] = target: Fuc(a1-2)Gal3S(b1-4)GlcNAc
# Summary of the method: as §1
# [19] = target: Fuc(a1-2)Gal6S(b1-3)GlcNAc
# Summary of the method: as §1
# [20] = target: Fuc(a1-2)Gal6S(b1-3)GlcNAc6S
# Summary of the method: as §1
# [21] = target: Fuc(a1-2)Gal6S(b1-4)Glc
# Summary of the method: as §1
# [22] = target: Fuc(a1-2)Gal6S(b1-4)Glc6S
# Summary of the method: as §1
# [23] = target: Fuc(a1-2)Gal6S(b1-4)GlcNAc
# Summary of the method: as §1
# [24] = target: Fuc(a1-2)[Gal(a1-3)]Gal
# Summary of the method: as §1
# [25] = target: Fuc(a1-2)[Gal(a1-3)]Gal(b1-3)GalNAc
# Summary of the method: as §1
# [26] = target: Fuc(a1-2)[Gal(a1-3)]Gal(b1-3)GalNAc(b1-3)Gal(a1-4)Gal(b1-4)Glc
# Summary of the method: as §1
# [27] = target: Fuc(a1-2)[Gal(a1-3)]Gal(b1-3)GlcNAc
# Summary of the method: as §1
# [28] = target: Fuc(a1-2)[Gal(a1-3)]Gal(b1-3)GlcNAc(b1-2)Man(a1-3)[Fuc(a1-2)[Gal(a1-3)]Gal(b1-3)GlcNAc(b1-2)Man(a1-6)]Man(b1-4)GlcNAc(b1-4)GlcNAc
# Summary of the method: as §1
# [29] = target: Fuc(a1-2)[Gal(a1-3)]Gal(b1-3)GlcNAc(b1-2)Man(a1-3)[Fuc(a1-2)[Gal(a1-3)]Gal(b1-3)GlcNAc(b1-2)Man(a1-6)]Man(b1-4)GlcNAc(b1-4)[Fuc(a1-6)]GlcNAc
# Summary of the method: as §1
# [30] = target: Fuc(a1-2)[Gal(a1-3)]Gal(b1-3)GlcNAc(b1-3)GalNAc
# Summary of the method: as §1
binder,measurement,setting,value
B1,glycan array binding signal (z-score),[1],0.135
same,glycan array binding signal (z-score),[2],-0.217
same,glycan array binding signal (z-score),[3],-0.118
same,glycan array binding signal (z-score),[4],-0.257
same,glycan array binding signal (z-score),[5],-0.262
same,glycan array binding signal (z-score),[6],-0.226
same,glycan array binding signal (z-score),[7],-0.478
same,glycan array binding signal (z-score),[8],-0.196
same,glycan array binding signal (z-score),[9],-0.492
same,glycan array binding signal (z-score),[10],-0.183
same,glycan array binding signal (z-score),[11],0.601
same,glycan array binding signal (z-score),[12],-0.238
same,glycan array binding signal (z-score),[13],0.147
same,glycan array binding signal (z-score),[14],0.407
same,glycan array binding signal (z-score),[15],0.375
same,glycan array binding signal (z-score),[16],0.107
same,glycan array binding signal (z-score),[17],-0.406
same,glycan array binding signal (z-score),[18],-0.472
same,glycan array binding signal (z-score),[19],-0.368
same,glycan array binding signal (z-score),[20],0.436
same,glycan array binding signal (z-score),[21],-0.211
same,glycan array binding signal (z-score),[22],0.032
same,glycan array binding signal (z-score),[23],-0.778
same,glycan array binding signal (z-score),[24],-0.256
same,glycan array binding signal (z-score),[25],-0.358
same,glycan array binding signal (z-score),[26],-0.468
same,glycan array binding signal (z-score),[27],0.359
same,glycan array binding signal (z-score),[28],-0.289
same,glycan array binding signal (z-score),[29],-0.062
same,glycan array binding signal (z-score),[30],-0.158
